B1: 14953337_14953457_101_CDS_ENSMUSG00000021737_ENSMUST00000022256|mouse|control|control (ssRNA)
RNA: GGGAGUUCUACAGUCCGACGAUCCGCGAUGCGCAGGUCGGGGUUCUUGGGCAGUCCCUCUUCUUCUAGGUUUUCUAGCGGCAUGGCUACAGCACAGGAGCCGGCUGACAGAACCAAGCACAGCCCUGGGCCACCAGCGGAAGCCAACAGAGGAUUGAGCAUCA
B2: chr9:14812383:14812384:-_ENSMUSG00000031934_ENSMUST00000164273|mus_mus|mus_mus_mus_hu_True|28_68 (ssRNA)
RNA: GGGAGUUCUACAGUCCGACGAUCAUAGCCCAGGUAGAUACACGCUAACAGUAUAAUGAUGAGUGUCACCAGCCGGCAGCUAAUGUACUUGAUGAUUAAAUUAUUAGAGUUCUUUUUUGUCUUCAAGUACUGCUCCACAAUUGGCAACAGAGGAUUGAGCAUCA
B3: 38631956_38633213_3845_CDS_ENSG00000105738_ENST00000222345|human|control|control (ssRNA)
RNA: GGGAGUUCUACAGUCCGACGAUCCCUCUUGCUGUGCAGUGGCUGGGACUCCCGGAAGGGGACUAUGGGGGUCUGCUUCAGGGGCCGGCUCAGGGACUGGGCAUGGCCGGGAGUGGUUGGAGUGGCCCACUUGGAGGCUGGUAGCAACAGAGGAUUGAGCAUCA
B4: 17148888_17149008_2252_3pUTR_ENSMUSG00000058230_ENSMUST00000075845|mouse|control|control (ssRNA)
RNA: GGGAGUUCUACAGUCCGACGAUCCAAUGCUUUAAAUCUCUGCUCUUCGCCCAGAACAUCCUGGAUGACACCCAUCUUCUCCUUGCUGGGCUUAGCGUCCAGCUCCAGCUCAUAAAACAAUUCUGAGUACUCCAAAAGCAACUCCAACAGAGGAUUGAGCAUCA
B5: chr3:176740097:176740098:-_ENSG00000177565_ENST00000430069|hu_mus|hu_hu_hu_mus_True|1_28 (ssRNA)
RNA: GGGAGUUCUACAGUCCGACGAUCUGUUUUGUAUACCACAAAAGGAGGCACUUUCAGUAUCUGCAAAAGGUGUUUAGUCCUAAAACAUACUCACCUAGAGGAUAACUAAAACAGAAUAUCUGUUACACUCUAAGACCUUAGGAACAACAGAGGAUUGAGCAUCA
B6: 140724004_140724124_2635_3pUTR_ENSMUSG00000019230_ENSMUST00000019374|mouse|control|control (ssRNA)
RNA: GGGAGUUCUACAGUCCGACGAUCUCUGGAAAGUAUUCUACAUGCUAACUUGUUUAACAUGUGCUUUGGAUAUACAGCUAAGUAAGAGUAGCUUUACAAAACUUCUUUCUUCAAGUAUUCCCUUUAACAGUGAGAAAAAACCUCCAACAGAGGAUUGAGCAUCA
B7: chr6:31461392:31461393:+_ENSMUSG00000025609_ENSMUST00000026699|mus_mus|FALSE|FALSE (ssRNA)
RNA: GGGAGUUCUACAGUCCGACGAUCACCUGACGGACACUAGAGGCUUUGGAUAACCAUGUCAUUUCAACAGUAAGACAAACUAUAGAGACAACCCCCACAGUCAAAAACCACAUAUAAAAAUUAGAAUUUGCUUAAUACAGAAAACAACAGAGGAUUGAGCAUCA
B8: chr8:108204030:108204031:+_ENSMUSG00000005698_ENSMUST00000005841|mus_mus|motif|central (ssRNA)
RNA: GGGAGUUCUACAGUCCGACGAUCGGCCACAGGCUGAGGUGGAGGCGGAGGCUGGGGCUGAGGCUCUGGCUCAGGUUCAAUUUCGGCAGCAGGCUCCUCCUCCUCCUCAUUGUCAUCGAGAUCCGGCUCAGCAUUUUCUUCACUCAACAGAGGAUUGAGCAUCA
B9: chr4:95690885:95690886:+_ENSMUSG00000028572_ENSMUST00000156910|mus_mus|mus_mus_mus_hu_False|58_78 (ssRNA)
RNA: GGGAGUUCUACAGUCCGACGAUCUUUAGAAAAUGUUAAAUACCAUGCUAAAAUAUUGUAAUUUUAAUAUUUUAUUUUACUAAAAGACACAGGCAAGCAGACACUACAAGAAUAUAUGAAAAUGAAACUCAACAAUAUAACUGUCAACAGAGGAUUGAGCAUCA
B10: 70217052_70217172_5078_3pUTR_ENSMUSG00000030465_ENSMUST00000120071|mouse|control|control (ssRNA)
RNA: GGGAGUUCUACAGUCCGACGAUCCCUGGGUGAAUGAAGGUAAGAAAGAGGUGCUGGAGCCUGUAAAACUGUCUGGUCUGUUUCUGUCUGAGUAACACAGAUGCUCUGAAACAAGAGCUGAUAUGCCUCAGACCCCAAGAUGCACAACAGAGGAUUGAGCAUCA
B11: 234355436_234356940_1485_3pUTR_ENSG00000077044_ENST00000264057|human|control|control (ssRNA)
RNA: GGGAGUUCUACAGUCCGACGAUCCACCGUCUCACAGAGCACUUUGGCCGAGGAGAUGACCACCGAGUGCUGGUCCGAGGUGAGGAUUUUAGAAAGGUGGGCUGCAACCGAGUCUUCAUAGAAGAGAAUCUGCUGUACCUCGGACAACAGAGGAUUGAGCAUCA
B12: chr1:130485734:130485735:-_ENSMUSG00000045382_ENSMUST00000052172|mus_mus|mus_mus_mus_hu_False|58_68 (ssRNA)
RNA: GGGAGUUCUACAGUCCGACGAUCGAUGAAGGAGUCGAUGCUGAUCCCAAUGUAGUAAGGCAGCCAACAGGCAAAGAAAGCUAGGAUGAGGAUGACUGUGGUCUUGAGGGCCUUGCGCUUCUGGUGGCCCUUGGAGUGUGACAGCAACAGAGGAUUGAGCAUCA
B13: chr3:148479741:148479742:-_ENSMUSG00000028184_ENSMUST00000106128|mus_mus|FALSE|FALSE (ssRNA)
RNA: GGGAGUUCUACAGUCCGACGAUCACAAUGCAGGCCUACAGAAAAACAAAACAAAACAAAAACAAAAACCGGUAGGGCCCUAUUUACAGACUCAGUUCACCAACUGCCGCAAGGAACAUGGCCGGGAGGGAGGGUCUCUUGUUUCAACAGAGGAUUGAGCAUCA
B14: chr16:3748964:3748965:+_ENSMUSG00000022529_ENSMUST00000023176|mus_hu|motif|central (ssRNA)
RNA: GGGAGUUCUACAGUCCGACGAUCUUCAGUGCAGUCCACACCCAUACACAGUCUUUCAGCUGCAUGUAUUCUCUGGUGCCGGAUUAGGUUUGAGUUGUUAGAGAAAUUUUUGCCACACAAGGGACAUAAAUGGAGUUUCUUUGGCAACAGAGGAUUGAGCAUCA

The list shows a part of the results.

The experiment deals with T1, UNK ZnF1-3 (human, UniProt Q9C0B0 31-174).
T1 sequence: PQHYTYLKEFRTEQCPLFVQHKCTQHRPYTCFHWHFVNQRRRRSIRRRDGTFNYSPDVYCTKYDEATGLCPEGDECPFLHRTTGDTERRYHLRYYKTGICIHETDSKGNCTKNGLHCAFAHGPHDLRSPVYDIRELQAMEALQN
In words: nsRBNS (natural sequence RNA bind-n-seq); RBNS binding buffer (assumed for nsRBNS): 25 mM Tris pH 7.5, 150 mM KCl, 3 mM MgCl2, 0.01% Triton X-100, 500 ug/ml BSA, 20 U/ml SUPERase-In, 4 C; UNK is unkempt and MSI1 is Musashi-1; names of the RNAs are library labels; protein concentration not given here; high values mean tight binding.
Take B1: the binding signal worked out at 0.789 enrichment R.

In the case of B2, the binding signal was 1.39 enrichment R.

B3 gave a binding signal of 1.68 enrichment R.

Consider B4, for which the binding signal came to 1.18 enrichment R.

With B5, the binding signal came out at 0.723 enrichment R.

B6 gave a binding signal of 0.477 enrichment R.

Consider B7, for which the binding signal stood at 2.92 enrichment R.

For B8, the binding signal came to 0.472 enrichment R.

Consider B9, for which the binding signal worked out at 1.57 enrichment R.

In turn, B10 had a binding signal of 0.625 enrichment R.

As to B11, the binding signal worked out at 1.43 enrichment R.

On to B12, for which the binding signal worked out at 1.45 enrichment R.

Molecule B13 gave a binding signal of 2.67 enrichment R.

The molecule B14 registered a binding signal of 0.81 enrichment R.

The record behind these values is paper PMC12136788.
